We go through two molecules from patent US10501552B2, “Multivalent molecules comprising DR5-binding domains” (MacroGenics, Inc., priority 2015, dated 2019).

What all share (assay): […]-GLO cell viability assay with vorinostat
The test system of test [1] is MCF7. Type of test: cell-based. Conditions: MCF7 (Breast); 1 μg/ml + 10 μM Vorinostat.
Test [2] relates to MDA-MB-361. The class given is cell-based. Conditions: MDA-MB-361 (Breast); 1 μg/ml + 10 μM Vorinostat.
Test [3] concerns Hs700T. The class given is cell-based. As to conditions: Hs700T (Pancreas); 1 μg/ml + 1 μM Vorinostat.
Test [4] relates to 22RV1. The class given is cell-based. As to conditions: 22RV1 (Prostate); 1 μg/ml + 10 μM Vorinostat.
Test [5] concerns HPAFII. The class given is cell-based. As to conditions: HPAFII (Pancreas); 1 μg/ml + 10 μM Vorinostat.
In test [6] the test system is PC3. Type of test: cell-based. Conditions: PC3 (Prostate); 1 μg/ml + 1 μM Vorinostat.
For test [7], the system named is AsPC1. The class given is cell-based. Conditions: AsPC1 (Pancreas); 1 μg/ml + 1 μM Vorinostat.
The test system of test [8] is COLO205. Type of test: cell-based. Conditions: for Average % Ctrl: one day. The procedure:
For the first study COLO205 cells were plated at 2×10^4 cells/well (in 96-well plates), and incubated overnight in F12/DMEM media supplemented with 10% FBS. […] Cell viability was determined using Promega […]-GLO® Luminescent Cell Viability Assay (Cat # G5430) essentially as described in the manufacturer's instructions to assay the amount of ATP present, which is a measure of the number of viable cells in the culture. Briefly, an […]-GLO® Reagent was added to the wells and mixed for two minutes to induce lysis and the luminescence was read in a in PerkinElmer EnVision multilabel plate reader.
Cell viability of cells treated with the test articles is normalized to the corresponding negative control (medium±vorinostat) which is set to 100% and reported in Table 12 as % of control for each test agent alone or % control for each test agent in combination with vorinostat. % of control values less than 100% indicate a reduction in viability and reflect the cytotoxicity of the test article alone or in combination with vorinostat.
The Net Gain (Average % Growth Inhibition)=% Medium Ctrl (10% FBS)−% Medium Ctrl (1/10 μM vorinostat), and represents increased cytotoxicity of the test article in combination with vorinostat over cells treated with vorinostat alone.

Test [9] relates to MDA-MB-175VII. Type of test: cell-based. As to conditions: MDA-MB-175VII (Breast); 1 μg/ml + 1 μM Vorinostat.
The test system of test [10] is SKBR3. The class given is cell-based, human. As to conditions: SKBR3 (Breast); 1 μg/ml + 1 μM Vorinostat.
In test [11] the test system is SKOV3. Type of test: cell-based. As to conditions: SKOV3 (Ovary); 1 μg/ml + 1 μM Vorinostat.
Test [12] has as its system NCI-N87. The class given is cell-based. Conditions: NCI-N87 (Stomach); 1 μg/ml + 1 μM Vorinostat.
In test [13] the test system is BT474. The class given is cell-based. Conditions: BT474 (Breast); 1 μg/ml + 10 μM Vorinostat.
The test system of test [14] is DU145. The class given is cell-based, human. Conditions: DU145 (Prostate); 1 μg/ml + 10 μM Vorinostat.
Test [15] relates to Hs746T. Type of test: cell-based. Conditions: Hs746T (Stomach); 1 μg/ml + 10 μM Vorinostat.
Test [16] relates to 786O. Type of test: cell-based. As to conditions: 786O (Kidney); 1 μg/ml + 1 μM Vorinostat.
Test [17] has as its system A549. Type of test: cell-based, human. As to conditions: A549 (Lung); 1 μg/ml + 10 μM Vorinostat.
For test [18], the system named is LNCap. Type of test: cell-based, human. Conditions: LNCap (Prostate); 1 μg/ml + 10 μM Vorinostat.
For test [19], the system named is ES2. Type of test: cell-based. As to conditions: ES2 (Ovary); 1 μg/ml + 10 μM Vorinostat.
Test [20] deals with Calu3. Type of test: cell-based. Conditions: Calu3 (Lung); 1 μg/ml + 1 μM Vorinostat.
[21] abbreviates: Vorinostat 0 μM, % Medium Ctrl (10% FBS), 10 ng/ml tetravalent molecule or 1 μg/ml DR5 mAb.
Where [22] appears, read: Vorinostat 0.1 μM, normalized to medium + vorinostat.
[23] abbreviates: Vorinostat 1 μM, normalized to medium + vorinostat.

B1: DR5 mAb 1 × DR5 mAb 1 Fc diabody: monospecific tetravalent E-coil/K-coil Fc diabody, wild-type IgG1 Fc; chains SEQ ID NO:128 and 130 (protein)
chain 1: DIVLTQSPASLAVSLGQRATISCRASKSVSSSGYSYMHWYQQKPGQPPKVLIFLSSNLDSGVPARFSGSGSGTDFTLNIHPVEDGDAATYYCQHSRDLPPTFGGGTKLEIKGGGSGGGGEVKFLESGGGLVQPGGSLKLSCVASGFDFSRYWMSWVRQAPGKGLEWIGEINPDSNTINYTPSLKDKFIISRDNAKNTLYLQMTKVRSEDTALYYCTRRAYYGNPAWFAYWGQGTLVTVSAASTKGEVAACEKEVAALEKEVAALEKEVAALEKL[sequence of human IgG1 Fc with C220S (EU numbers) omitted]
chain 2: DIVLTQSPASLAVSLGQRATISCRASKSVSSSGYSYMHWYQQKPGQPPKVLIFLSSNLDSGVPARFSGSGSGTDFTLNIHPVEDGDAATYYCQHSRDLPPTFGGGTKLEIKGGGSGGGGEVKFLESGGGLVQPGGSLKLSCVASGFDFSRYWMSWVRQAPGKGLEWIGEINPDSNTINYTPSLKDKFIISRDNAKNTLYLQMTKVRSEDTALYYCTRRAYYGNPAWFAYWGQGTLVTVSAASTKGKVAACKEKVAALKEKVAALKEKVAALKE
modifications: First Polypeptide Chain of an Exemplary DR5 mAb 1 x DR5 mAb 1 Fc diabody; Second Polypeptide Chain of an Exemplary DR5 mAb 1 x DR5 mAb 1 Fc diabody
Take B1: the “Net Gain (Average % Growth Inhibition)” value was 4.00% in test [1]; 87.06% in [2]; 49.75% in test [3]; 6.81% in [4]; 55.42% in test [5]; 11.22% in test [6]. Besides, the “Net Gain (Average % Growth Inhibition)” value in test [7] was 10.71%; in [8] (Vorinostat 0.1 μM), 15%; in test [8] (Vorinostat 1 μM), 21%; in test [9], 15.84%; in test [10] it was 42.42%; in [11], 60.65%. In addition, the “Net Gain (Average % Growth Inhibition)” value in [12] is 38.47%; in [13], 71.80%; in test [14] it was 2.92%; in [15] it was 49.15%; in test [16], 27.69%; in test [17], 30.24%. The “Net Gain (Average % Growth Inhibition)” value in [18] is 20.96%; in test [19], 88.11%; in test [20] it was 10.67%. The “Average % Ctrl” value worked out at 64.2% in [8] (setting [21]), 49.7% in test [8] (setting [22]) and 42.9% in [8] (setting [23]).

B2: DR5 mAb 2 × DR5 mAb 2 Fc diabody: monospecific tetravalent E-coil/K-coil Fc diabody, wild-type IgG1 Fc; chains SEQ ID NO:134 and 136 (protein)
chain 1: DIVMTQSHKFMSTSVGDRVSITCKASQDVNTAVAWYQQKPGQSPKLLIYWASTRHTGVPDRFTGSGSGTDYTLTIKSVQAEDLTLYYCQQHYITPWTFGGGTKLEIKGGGSGGGGKVQLQQSGAELVKPGASVKLSCKASGYTFTEYILHWVKQKSGQGLEWIGWFYPGNNNIKYNEKFKDKATLTADKSSSTVYMELSRLTSEDSAVYFCARHEQGPGYFDYWGQGTTLTVSSASTKGEVAACEKEVAALEKEVAALEKEVAALEKL[sequence of human IgG1 Fc with C220S (EU numbers) omitted]
chain 2: DIVMTQSHKFMSTSVGDRVSITCKASQDVNTAVAWYQQKPGQSPKLLIYWASTRHTGVPDRFTGSGSGTDYTLTIKSVQAEDLTLYYCQQHYITPWTFGGGTKLEIKGGGSGGGGKVQLQQSGAELVKPGASVKLSCKASGYTFTEYILHWVKQKSGQGLEWIGWFYPGNNNIKYNEKFKDKATLTADKSSSTVYMELSRLTSEDSAVYFCARHEQGPGYFDYWGQGTTLTVSSASTKGKVAACKEKVAALKEKVAALKEKVAALKE
modifications: First Polypeptide Chain of an Exemplary DR5 mAb 2 x DR5 mAb 2 Fc diabody; Second Polypeptide Chain of an Exemplary DR5 mAb 2 x DR5 mAb 2 Fc diabody
For B2, the “Net Gain (Average % Growth Inhibition)” value in [1] came to 8.76%; in [2], 62.67%; in test [3], 48.54%; in test [4], 7.45%; in test [5] it was 37.51%; in test [6] it was 10.85%. The “Net Gain (Average % Growth Inhibition)” value in test [7] worked out at 12.30%; in test [8] (Vorinostat 0.1 μM), 24%; in test [8] (Vorinostat 1 μM), 29%; in [9], 15.11%; in test [10], 34.85%; in test [11] it was 55.49%. For the same molecule, the “Net Gain (Average % Growth Inhibition)” value in [12] came to 36.43%; in test [13] it was 54.94%; in [14], 3.88%; in [15] it was 22.05%; in test [16], 18.24%; in [17], 20.29%. For the same molecule, the “Net Gain (Average % Growth Inhibition)” value was 14.37% in test [18], 74.12% in test [19] and 13.22% in test [20]. Moreover, the “Average % Ctrl” value in [8] (setting [21]) was 75.0%; in test [8] (setting [22]), 50.8%; in test [8] (setting [23]) it was 45.6%.
